According to the supplement of paper PMC10126150:
Values marked as one replicate rest on one cluster of the flow cell; about a third of the high ones do not repeat.

Each sequence was assayed on ATP (assay: switch fluorescence ratio, 500 uM ATP over buffer (Cy3 cluster intensity, sum of 5 cycles each) (fold (ratio)); higher = stronger signal-on switching upon ATP binding; sequences stand for … in TCGTCGGCAGCGTCAGATGTGTATAAGAGACAGTTTTTTTTTTTTTTTTTTTTTTTTT…TC). Conditions: aptamer strand: ATP DNA aptamer (quencher-CACCTGGGGGAGTATTGCGGAGGAAGG + anchor), 100 nM annealed; ATP concentration: 500 uM; one replicate.
How it was run: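 Cy3-labelled switching-strand clusters on a modified Illumina MiSeq flow-cell were annealed to 100 nM quencher-labelled ATP aptamer, imaged in selection buffer, then imaged after 15 min with 500 uM ATP at 22 °C. Five buffer/ATP cycles ran, with NaOH stripping and re-annealing between them. The fluorescence ratio is summed target-cycle over summed buffer-cycle Cy3 intensity per cluster, averaged per switch-domain sequence. Clusters outside 100-1000 RFU were excluded.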
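Also: ATP exposure 15 min at 22 °C before imaging.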

Row | Sequence | switch fluorescence ratio
1 | CGGTTGCTGT | 0.992
2 | CGGTTGGCAT | 0.99
3 | CGGTTGGCGC | 1
4 | CGGTTGTAAC | 1
5 | CGGTTGTGTG | 1.01
6 | CGTAACCTAG | 0.997
7 | CGTAAGGCCT | 0.996
8 | CGTAAGGGGC | 1.02
9 | CGTAATCAAG | 0.982
10 | CGTAATCATT | 1.04
11 | CGTACACAAT | 2.07
12 | CGTACATGGG | 1.04
13 | CGTACGAACT | 1.01
14 | CGTACGCGGT | 1.25
15 | CGTACGTGT | 1.14
16 | CGTACTCAAG | 1.02
17 | CGTAGAAAAT | 1
18 | CGTAGAATAG | 1.06
19 | CGTAGACGAC | 1.01
20 | CGTAGAGCAT | 1
21 | CGTAGAGTGG | 1.01
22 | CGTAGCCCGT | 1.04
23 | CGTAGCGTAA | 2.46
24 | CGTAGCGTCG | 1.03
25 | CGTAGGGATA | 1.06

Row | Sequence | switch fluorescence ratio
26 | CGTAGGTCGA | 1.03
27 | CGTAGTTCCA | 0.995
28 | CGTATCCGTG | 0.988
29 | CGTATGAACT | 1
30 | CGTATGACGA | 0.994
31 | CGTATGAGTC | 0.983
32 | CGTATGGTAT | 0.986
33 | CGTATTGGAG | 0.967
34 | CGTATTGGCT | 0.946
35 | CGTCAAATGA | 1.03
36 | CGTCACTACC | 1.18
37 | CGTCAGCTCG | 1.06
38 | CGTCATACAG | 0.997
39 | CGTCATGTTA | 1
40 | CGTCCGCGGA | 2.02
41 | CGTCCGGGGC | 3.36
42 | CGTCCTACGG | 1.02
43 | CGTCGCGATC | 3.42
44 | CGTCGGCGGG | 1.03
45 | CGTCGGTGGG | 1.02
46 | CGTCGTCAGA | 1
47 | CGTCGTGCGC | 0.991
48 | CGTCTAAACC | 1.07
49 | CGTCTAGTAT | 1.02
50 | CGTCTCTATG | 0.968

Row | Sequence | switch fluorescence ratio
51 | CGTCTGAGAA | 0.984
52 | CGTCTGCGCT | 0.966
53 | CGTCTGGGGT | 0.99
54 | CGTCTTGTTG | 0.986
55 | CGTGAAATTT | 0.987
56 | CGTGAACAGA | 1.01
57 | CGTGAACATG | 1.02
58 | CGTGAACCGT | 1.04
59 | CGTGAAGTAG | 0.983
60 | CGTGAATCCC | 1
61 | CGTGAATCGG | 0.994
62 | CGTGAGACAC | 1.02
63 | CGTGAGCCCA | 1.04
64 | CGTGATGGAA | 1
65 | CGTGATTGTA | 1.02
66 | CGTGATTTAG | 0.953
67 | CGTGCACTCG | 1
68 | CGTGCGCGCT | 0.994
69 | CGTGCGTGAT | 1.13
70 | CGTGCTTAAA | 1.02
71 | CGTGCTTATT | 1.1
72 | CGTGGACCCG | 1.08
73 | CGTGGACTTC | 1.01
74 | CGTGGAGCGG | 0.944
75 | CGTGGCCCGA | 0.935

Row | Sequence | switch fluorescence ratio
76 | CGTGGCCGTC | 0.981
77 | CGTGGCGTCC | 0.981
78 | CGTGGCTTGT | 1.04
79 | CGTGGGACTT | 0.987
80 | CGTGGGGCTG | 1.12
81 | CGTGGGTACG | 0.992
82 | CGTGGTACGA | 1.08
83 | CGTGGTATTC | 1.02
84 | CGTGGTCGGG | 0.963
85 | CGTGGTTGCT | 1.06
86 | CGTGTACGCA | 0.946
87 | CGTGTATAAA | 0.961
88 | CGTGTCACCA | 1
89 | CGTGTCGACT | 0.955
90 | CGTGTCTGTA | 0.956
91 | CGTGTGAAAT | 1.01
92 | CGTGTGGAAG | 1
93 | CGTGTGTCGG | 0.945
94 | CGTGTGTGCC | 0.988
95 | CGTGTTATGG | 1.05
96 | CGTGTTGGTT | 0.995
97 | CGTTACCGCG | 1.03
98 | CGTTACTCAT | 1.02
99 | CGTTACTT | 1.01
100 | CGTTAGAACT | 0.997

Row | Sequence | switch fluorescence ratio
101 | CGTTAGCAGT | 1.12
102 | CGTTAGGAGC | 1.01
103 | CGTTATAGTA | 0.981
104 | CGTTATTTTA | 1.01
105 | CGTTCAAGAG | 1.01
106 | CGTTCGTTAT | 1.1
107 | CGTTCTGCGT | 0.991
108 | CGTTGAACCG | 0.949
109 | CGTTGAGAAT | 1.03
110 | CGTTGAGTAC | 0.979
111 | CGTTGCAGTG | 0.985
112 | CGTTGCATT | 1.01
113 | CGTTGCCTA | 0.998
114 | CGTTGCGCCC | 1.03
115 | CGTTGGAGTT | 1.02
116 | CGTTGGATGG | 1.01
117 | CGTTGGCTAT | 1.01
118 | CGTTGTAATA | 1.08
119 | CGTTGTCAGC | 1.01
120 | CGTTGTCTAA | 0.981
121 | CGTTGTTTGT | 0.968
122 | CGTTTACCGG | 0.989
123 | CGTTTATCCT | 1.04
124 | CGTTTATGGC | 1.01
125 | CGTTTCGTCA | 1.01

Row | Sequence | switch fluorescence ratio
126 | CGTTTGAGTA | 0.956
127 | CGTTTGATT | 0.99
128 | CGTTTGCCTC | 0.926
129 | CGTTTGTCTG | 1
130 | CGTTTGTTT | 0.996
131 | CGTTTTAGGT | 1.01
132 | CGTTTTATAA | 1.05
133 | CGTTTTCCTT | 0.981
134 | CGTTTTTCA | 0.997
135 | CTAAAAAACT | 1.05
136 | CTAAAACTAT | 1
137 | CTAAACGAAT | 1.01
138 | CTAAATCAGG | 1.02
139 | CTAACCCAGC | 1.12
140 | CTAACCCATG | 1.12
141 | CTAACCGTGC | 1.35
142 | CTAACCTGTG | 1.05
143 | CTAACGACTA | 1.1
144 | CTAACGCGGA | 1.05
145 | CTAACGTATT | 1.11
146 | CTAACTATGC | 1.08
147 | CTAACTTTTA | 1.04
148 | CTAAGAAAGG | 0.939
149 | CTAAGAATCA | 1
150 | CTAAGATTTA | 0.982

Row | Sequence | switch fluorescence ratio
151 | CTAAGGACTG | 1.12
152 | CTAAGTTGAA | 1.98
153 | CTAATACCCG | 1.04
154 | CTAATCGGAA | 1.05
155 | CTAATCTTCT | 1.02
156 | CTAATTAAGC | 1.02
157 | CTAATTACCT | 1.27
158 | CTAATTAGGA | 0.979
159 | CTAATTGAAA | 1.01
160 | CTAATTTTGA | 1.03
161 | CTAATTTTTA | 0.98
162 | CTACAGTTAC | 1.47
163 | CTACCACTCC | 1.52
164 | CTACCAGGGC | 1.4
165 | CTACCCTTCG | 1.37
166 | CTACCTACTA | 1.28
167 | CTACCTTTGG | 0.999
168 | CTACGAAATA | 2.83
169 | CTACGAGCTA | 1.2
170 | CTACGATTGG | 1.02
171 | CTACGTCAGA | 1.28
172 | CTACGTGGGT | 0.993
173 | CTACTAGATT | 1.01
174 | CTACTATCG | 0.992
175 | CTACTGCCAC | 1.35

Row | Sequence | switch fluorescence ratio
176 | CTACTGGGTT | 0.99
177 | CTAGACTCTC | 0.95
178 | CTAGAGAACC | 0.982
179 | CTAGAGAGT | 1
180 | CTAGAGGT | 1.03
181 | CTAGCGCCCG | 0.976
182 | CTAGCGCTTC | 1.07
183 | CTAGCTATTG | 1.06
184 | CTAGCTATTT | 1.03
185 | CTAGCTCGCG | 1.09
186 | CTAGGCGTTC | 0.993
187 | CTAGGCTGGT | 0.972
188 | CTAGGCTTAG | 0.996
189 | CTAGGGAATA | 1.02
190 | CTAGGGAGCG | 0.953
191 | CTAGGGGGAC | 1.01
192 | CTAGGGGTCA | 0.995
193 | CTAGGGGTGA | 1.02
194 | CTAGGTAGTT | 1.02
195 | CTAGGTATCT | 0.999
196 | CTAGGTGTTC | 1.09
197 | CTAGTAATGA | 1.03
198 | CTAGTAGTTT | 0.988
199 | CTAGTCCCAG | 1.06
200 | CTAGTGTGTT | 1.02
